Settings: presence of 3CLpro or PLpro, compared with GSH alone

## N[C@@H](CCC(=O)N[C@@H](CS)C(=O)NCC(=O)O)C(=O)O [GSH, reduced glutathione]
  stability of GSH: slightly stabilized

Reference: paper PMC3299889 (Analytical Biochemistry, 2012)
